Experimental findings from ChEMBL document CHEMBL4888484, “Replenishing the malaria drug discovery pipeline: Screening and hit evaluation of the MMV Hit Generation Library 1 (HGL1) against asexual blood stage Plasmodium falciparum ,using a nano luciferase reporter read-out” (2022) are described below.

The whole screen tested about 150,000 compounds, of which about 540 (0.36%) showed an effect of 50% or more. This is one part of the list.

In the experiment the test system is Plasmodium falciparum. The experiment can be described thus: Primary screen in NF54 nanoGlo assay, in single point, at 2uM, 72h; a lower Z score goes with more inhibition. It is filed as functional, Erythrocyte. Particulars: timepoint 72 hour.
Turning to `CC(=O)N[C@H]1CN(C(=O)c2ccc3c(c2)CCC3)C[C@@H]1c1ccc(C)cc1`, the “% Inhibition” value is listed as -8% and the Z score was 1.43.
Taken in the same sequence, the figures for `COC(C(=O)N1C[C@@H]2CCCN(C(=O)C(OC)C3CC3)[C@@H]2C1)C1CC1` (stereo not given in full) were 0% and 0.01.
Consider `COc1c(C)cc(C)cc1S(=O)(=O)Nc1nc(C(F)(F)F)c[nH]1`, for which the “% Inhibition” value is listed as 0% and the Z score is recorded as -0.03.
On to `COc1ccc2c(c1)C(NC(=O)C1CCOC1)CCN2C(=O)C1CCOC1` (stereo not given), for which the “% Inhibition” value is reported as -11% and the Z score is 2.4.
For the molecule `CC1(C)CC(=O)NCCN1Cc1noc(-c2ccccc2)n1`, the “% Inhibition” value was determined as 9% and the Z score is reported as -1.83.
Taken in the same sequence, the figures for `Cc1cc(C)cc(NC(=O)c2ccc(Nc3ncc(-c4cccc(F)c4)cn3)cc2)c1` were 31% and -3.48.
Turning to `COC[C@H]1CCCN1C(=O)[C@@H](C)C1CC[C@@]2(C)CC[C@H](NC(=O)c3ccc(OC)cc3)[C@@H](C)[C@@H]2[C@H]1O` (stereo not given in full), the “% Inhibition” value is 5% and the Z score was -0.58.
As to `CCOC(=O)N1CCN(Cc2cn3cccc(C)c3n2)CC1`, the “% Inhibition” value is -5% and the Z score amounted to 0.6.
Regarding `CCOC(=O)C1CCN(c2ncc(C(=O)Nc3ccccc3)c(N)n2)CC1`, the “% Inhibition” value is -12% and the Z score was determined as 1.44.
Taken in the same sequence, the figures for `Nc1nc2cc[nH]c2cc1Br` were 4% and -0.7.
`Cc1ncc(CNCc2cncn2CC(C)C)cn1`: the “% Inhibition” value amounted to 4% and the Z score is reported as -0.36.
Taken in the same sequence, the figures for `O=S(=O)(NC1CCCC(C(F)(F)F)C1)N1CCOCC1` (stereo not given) were -27% and 3.18.
Take `Cc1noc(C)c1S(=O)(=O)N(C1CC1)[C@@H](C)c1cccc(C(F)(F)F)c1`: the “% Inhibition” value is recorded as -13% and the Z score is recorded as 2.37.
For `CCc1cccc(C)c1NC(=O)COc1ccc(N2C[C@@H](C(=O)NCc3ccc(C)cc3)CC2=O)cc1`, the “% Inhibition” value was -14% and the Z score is 1.73.
Regarding `C[C@](O)(C(=O)NCC(=O)NC1CCCC1)c1ccc(F)cc1`, the “% Inhibition” value came out at 35% and the Z score is reported as -0.73.
Taken in the same sequence, the figures for `C[C@@H](CS(=O)(=O)c1cccc2cccnc12)N1CCCCC1` were -1% and 0.17.
Turning to `Cc1cnccc1NCCNc1ccc(C(N)=O)cn1`, the “% Inhibition” value is -13% and the Z score is given as 2.42.
Taken in the same sequence, the figures for `CCN(CC1COc2ccccc2O1)C(=O)CN1C(=O)NC2(CCCCC2C)C1=O` (stereo not given) were -1% and 0.27.
Taken in the same sequence, the figures for `c1cc2c(cc1-c1nnc3ccc(NC4CCC4)nn13)OCO2` were -11% and 1.73.
For the molecule `Cc1cc(C)c(NC(=O)c2c(Oc3ccc(F)cc3)nc(C)c(Cl)c2C)c(C)c1`, the “% Inhibition” value is on record as -3% and the Z score was determined as 0.54.
In the case of `CCCS(=O)(=O)NC[C@H]1CCC(=O)N(Cc2ccccc2)CC1`, the “% Inhibition” value is 10% and the Z score is on record as -1.01.
Taken in the same sequence, the figures for `CC(=O)C1C(c2cccnc2)c2c(C)[nH]c(=O)c(C#N)c2CC1(C)O` (stereo not given) were -8% and 1.13.
With `Cc1ccccc1-c1csc(=O)n1Cc1cc(C2CC2)no1`, the “% Inhibition” value is given as 9% and the Z score was -1.81.
Taken in the same sequence, the figures for `CCC1(CC)CN(C(=O)c2ccc3ccccc3n2)CC[S@@+]1[O-]` were -6% and 0.67.
For `CN(CCc1cnn(C)c1)Cc1cc(O)c2cccc(F)c2n1`, the “% Inhibition” value is reported as 0% and the Z score was determined as 0.
Taken in the same sequence, the figures for `O=C(Nc1ccc2c(c1)CCC2)[C@@H]1CCCN1C(=O)c1ccco1` were -3% and 0.43.
On to `O=C(CCc1cccnc1)Nc1nc2ccc(F)cc2s1`, for which the “% Inhibition” value came to 4% and the Z score is on record as -0.65.
Taken in the same sequence, the figures for `Cc1nc(C(=O)N2CCc3nc[nH]c3C2)c(-c2ccccc2)s1` were -6% and 0.86.
As for `CC(C)c1ccc(C(=O)NCc2ccn(C3CCCC3)n2)c(=O)[nH]1`, the “% Inhibition” value is given as 2% and the Z score is reported as -0.44.
With `Cc1ncc(C(=O)N[C@H]2CCS(=O)(=O)[C@H]2C)c(N)n1`, the “% Inhibition” value is -12% and the Z score is given as 1.41.
For the molecule `NC(=O)c1csc(CN2CCc3c(F)ccc(F)c3C2)c1`, the “% Inhibition” value is recorded as 18% and the Z score is reported as -2.38.
For the molecule `O=S(=O)(NCc1ccnc(-c2cccnc2)c1)c1cccs1`, the “% Inhibition” value is reported as -3% and the Z score stood at 0.45.
`COCC1(CNC(=O)c2cn(C)nc2C(C)C)CCCCC1`: the “% Inhibition” value was -6% and the Z score was 0.65.
With `O=C(c1ccc2[nH]c(=O)[nH]c2c1)N1CC[C@H]1C1CCCC1`, the “% Inhibition” value is recorded as -16% and the Z score was found to be 2.14.
Taken in the same sequence, the figures for `CC(=O)NC1CN(C(=O)[C@]2(c3ccccc3)CCCO2)C1` were -14% and 2.97.
In the case of `CC(C)COc1cncc(N2CCn3c(nnc3C(F)(F)F)C2)n1`, the “% Inhibition” value is -10% and the Z score was 0.97.
As to `Cc1cc(N2CCN3C(=O)C(=O)NC[C@H]3C2)ncc1Br`, the “% Inhibition” value was determined as 10% and the Z score is -0.89.
With `OCCOc1ccccc1-c1cn(Cc2ccccn2)nn1`, the “% Inhibition” value is -5% and the Z score was determined as 0.62.
Taken in the same sequence, the figures for `COc1ccc(CC(=O)N(C)c2nncs2)cc1OC(F)F` were 0% and -0.02.
Taken in the same sequence, the figures for `Cn1c(C(=O)NCc2ccccc2Cl)cc2ccncc21` were 4% and -0.62.
`CC1CCC(C(N)=O)CN1C(=O)C1CC1c1ccco1` (stereo not given): the “% Inhibition” value is -7% and the Z score stood at 0.99.
On to `CC1CC(C)CN(C(=O)c2cccc(S(=O)(=O)N3CCCC3)c2)C1` (stereo not given), for which the “% Inhibition” value turned out to be 1% and the Z score is -0.17.
Taken in the same sequence, the figures for `N#CCc1ccc(OCCNC(=O)[C@@H]2Cc3cccc(F)c3O2)cc1` were -3% and 0.53.
As to `O=c1scnn1Cc1ccc(F)cc1`, the “% Inhibition” value is -12% and the Z score is given as 1.06.
For `Cn1c(C2CCC2)nnc1N1CCCC[C@H](S(C)(=O)=O)C1`, the “% Inhibition” value is on record as -1% and the Z score is recorded as 0.12.
`Fc1ccc(NC[C@H]2CCCN2)cc1Cl`: the “% Inhibition” value is on record as -10% and the Z score turned out to be 1.22.
Taken in the same sequence, the figures for `Cc1cccc(NCC(=O)Nc2ccccc2)c1C(=O)N1CCCC1` were -10% and 1.14.
Taken in the same sequence, the figures for `CS(=O)(=O)[C@H]1C[C@H](N[C@H](c2ccccc2F)C2CCOCC2)C1` were -3% and 0.42.
`CCn1cc(S(=O)(=O)N[C@H]2CN(C)C[C@@H]2OC)c(C)n1`: the “% Inhibition” value was -8% and the Z score stood at 1.36.
Taken in the same sequence, the figures for `Cc1ccnc(NC(=O)c2csc(Cl)c2)n1` were -11% and 2.02.
Regarding `Cc1ncccc1-c1csc(N2CCOCC2)n1`, the “% Inhibition” value is recorded as -13% and the Z score was 2.
For `Cc1ccc(Cl)cc1NC(=O)N(C)CCc1noc(COc2ccccc2F)n1`, the “% Inhibition” value is reported as -5% and the Z score is reported as 0.84.
For `Cc1cc(C)c(N(C)S(=O)(=O)c2cc3c(cc2Cl)Oc2cc(C)ccc2NC3=O)c(C)c1`, the “% Inhibition” value is -7% and the Z score came out at 0.96.
Regarding `O=S(=O)(Cc1ccccc1)N1C2CCC1CC(=C1CC1)C2`, the “% Inhibition” value came to 12% and the Z score is given as -1.51.
Regarding `CCOc1cc(C(=O)N2CCCc3cc(C)ccc32)ncn1`, the “% Inhibition” value is on record as -2% and the Z score is 0.41.
